Data published in the supplement of paper PMC12217912.
The other results are listed elsewhere or left out. The full chains were built here from the parent and the listed change. Inactive controls read about 0.05.

B1: TEV protease; numbered along this chain (parent)
chain: MGESLFKGPRDYNPISSSICHLTNESDGHTTSLYGIGFGPFIITNKHLFRRNNGTLVVQSLHGVFKVKDTTTLQQHLVDGRDMIIIRMPKDFPPFPQKLKFREPQREERICLVTTNFQTKSMSSMVSDTSCTFPSGDGIFWKHWIQTKDGQCGSPLVSTRDGFIVGIHSASNFTNTNNYFTSVPKNFMELLTNQEAQQWVSGWRLNADSVLWGGHKVFMVKPEEPFQPVKEATQL

Variants of: B1
Assay: raw area under fraction-flipped curve 0-4 h after induction (AUC4h, not background-subtracted), DNA-recorder readout of cleavage of the substrate (dimensionless); higher = more cleavage of the substrate by the protease variant
Conditions: temperature: 34 °C; time window: 0-4 h after rhamnose induction
Procedure: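 In vivo DNA recorder in E. coli TOP10(DE3) ΔrhaA at 34 °C. Each TEVp single-site mutant (parent TEVp 0) is paired with a single-site variant of the 7-mer TEVs (canonical ENLYFQ|S). The substrate sits between flexible linkers in a Bxb1-sfGFP-TEVs-SsrA fusion, so cleavage stabilises Bxb1 and speeds flipping of a recombination array, read by NGS. The value is the raw area under the fraction-flipped curve over 0-4 h after rhamnose induction (AUC4h), with ≥20 reads per time point. It is not background-subtracted; inactive controls average about 0.047.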
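Further: Bxb1 expression induced with 0.2% (w/v) L-rhamnose at OD600 near 0.5, cultures sampled hourly, flipped fraction per protease–substrate barcode pair counted by paired-end Illumina sequencing.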

Variant | area with substrate ENLYFCS | area with substrate ENLYFES | area with substrate ENLYFFS | area with substrate ENLYFGS | area with substrate ENLYFHS | area with substrate ENLYFIS | area with substrate ENLYFKS | area with substrate ENLYFLS | area with substrate ENLYFMS | area with substrate ENLYFNS | area with substrate ENLYFPS | area with substrate ENLYFRS | area with substrate ENLYFTS | area with substrate ENLYFWS | area with substrate ENLYFDS | area with substrate ENLYFVS | area with substrate ENLYFSS | area with substrate ENLYFYS
MGESLFKGPRDYNPISSSICHLTNESDGHTTSLYGIGFGPFIITNKHLFRRNNGTLVVQSLHGVFKVKDTTTLQQHLVDGRDMIIIRMPKDFPPFPQKLKFRQPQREERICLVTTNFQTKSMSSMVSDTSCTFPSGDGIFWKHWIQTKDGQCGSPLVSTRDGFIVGIHSASNFTNTNNYFTSVPKNFMELLTNQEAQQWVSGWRLNADSVLWGGHKVFMVKPEEPFQPVKEATQL [E103Q] | 0.0648 | 0.0568 | 0.0714 | 0.0672 | 0.0644 | 0.0553 | 0.0478 | 0.043 | 0.0622 | 0.0471 | 0.0661 | 0.0599 | 0.0532 | 0.0608 |  |  |  | 
MGESLFKGPRDYNPISSSICHLTNESDGHTTSLYGIGFGPFIITNKHLFRRNNGTLVVQSLHGVFKVKDTTTLQQHLVDGRDMIIIRMPKDFPPFPQKLKFRCPQREERICLVTTNFQTKSMSSMVSDTSCTFPSGDGIFWKHWIQTKDGQCGSPLVSTRDGFIVGIHSASNFTNTNNYFTSVPKNFMELLTNQEAQQWVSGWRLNADSVLWGGHKVFMVKPEEPFQPVKEATQL [E103C] | 0.067 | 0.0579 | 0.0732 |  |  | 0.0502 | 0.0329 |  | 0.0819 | 0.0545 | 0.0647 |  | 0.0756 |  | 0.0629 |  |  | 
MGESLFKGPRDYNPISSSICHLTNESDGHTTSLYGIGFGPFIITNKHLFRRNNGTLVVQSLHGVFKVKDTTTLQQHLVDGRDMIIIRMPKDFPPFPQKLKFREPCREERICLVTTNFQTKSMSSMVSDTSCTFPSGDGIFWKHWIQTKDGQCGSPLVSTRDGFIVGIHSASNFTNTNNYFTSVPKNFMELLTNQEAQQWVSGWRLNADSVLWGGHKVFMVKPEEPFQPVKEATQL [Q105C] | 0.0463 | 0.0682 | 0.0968 |  |  | 0.0532 | 0.0713 | 0.0559 | 0.0707 | 0.0626 | 0.0625 | 0.0565 | 0.069 | 0.0589 | 0.0495 | 0.049 |  | 
MGESLFKGPRDYNPISSSICHLTNESDGHTTSLYGIGFGPFIITNKHLFRRNNGTLVVQSLHGVFKVKDTTTLQQHLVDGRDMIIIRMPKDFPPFPQKLKFREPQREERITLVTTNFQTKSMSSMVSDTSCTFPSGDGIFWKHWIQTKDGQCGSPLVSTRDGFIVGIHSASNFTNTNNYFTSVPKNFMELLTNQEAQQWVSGWRLNADSVLWGGHKVFMVKPEEPFQPVKEATQL [C111T] | 0.065 |  | 0.0944 | 0.0602 | 0.0707 | 0.0617 | 0.0753 |  | 0.0905 | 0.0654 | 0.0592 | 0.0514 |  | 0.0486 | 0.0517 |  | 0.06 | 0.0302
MGESLFKGPRDYNPISSSICHLTNESDGHTTSLYGIGFGPFIITNKHLFRRNNGTLVVQSLHGVFKVKDTTTLQQHLVDGRDTIIIRMPKDFPPFPQKLKFREPQREERICLVTTNFQTKSMSSMVSDTSCTFPSGDGIFWKHWIQTKDGQCGSPLVSTRDGFIVGIHSASNFTNTNNYFTSVPKNFMELLTNQEAQQWVSGWRLNADSVLWGGHKVFMVKPEEPFQPVKEATQL [M83T] | 0.0588 | 0.0659 |  |  | 0.0213 | 0.0554 | 0.0515 |  | 0.0534 | 0.0583 | 0.057 | 0.0585 | 0.0562 | 0.0561 | 0.0672 | 0.0648 | 0.0682 | 
MGESLFKGPRDYNPISSSICHLTNESDGHTTSLYGIGFGPFIITNKHLFRRNNGTLVVQSLHGVFKVKDTTTLQQHLSDGRDMIIIRMPKDFPPFPQKLKFREPQREERICLVTTNFQTKSMSSMVSDTSCTFPSGDGIFWKHWIQTKDGQCGSPLVSTRDGFIVGIHSASNFTNTNNYFTSVPKNFMELLTNQEAQQWVSGWRLNADSVLWGGHKVFMVKPEEPFQPVKEATQL [V78S] | 0.0697 | 0.0572 | 0.0636 |  |  | 0.0467 | 0.0587 | 0.0735 | 0.0598 | 0.0706 | 0.0614 | 0.0513 |  | 0.0483 |  | 0.0612 | 0.0869 | 0.0513
MGESLFKGPRDYNPISSSICHLTNESDGHTTSLYGIGFGPFIITNKHLFRRNNGTLVVQSLHGVFKVKDTTTLQQHLCDGRDMIIIRMPKDFPPFPQKLKFREPQREERICLVTTNFQTKSMSSMVSDTSCTFPSGDGIFWKHWIQTKDGQCGSPLVSTRDGFIVGIHSASNFTNTNNYFTSVPKNFMELLTNQEAQQWVSGWRLNADSVLWGGHKVFMVKPEEPFQPVKEATQL [V78C] | 0.0665 | 0.0625 | 0.0674 |  |  | 0.0539 | 0.0704 |  | 0.0697 |  | 0.0561 | 0.0304 |  | 0.0545 | 0.055 | 0.0503 | 0.0517 | 
MGESLFKGPRDYNPISSSICHLTNESDGHTTSLYGIGFGPFIITNKHLFRRNNGTLVVQSLHGVFKVKDTTTLQQHLFDGRDMIIIRMPKDFPPFPQKLKFREPQREERICLVTTNFQTKSMSSMVSDTSCTFPSGDGIFWKHWIQTKDGQCGSPLVSTRDGFIVGIHSASNFTNTNNYFTSVPKNFMELLTNQEAQQWVSGWRLNADSVLWGGHKVFMVKPEEPFQPVKEATQL [V78F] | 0.0716 | 0.0625 | 0.0631 |  | 0.0492 | 0.0563 | 0.0454 |  | 0.0668 |  | 0.0613 |  |  |  | 0.0595 |  | 0.0555 | 0.0552
MGESLFKGPRDYNPISSSICHLTNESDGHTTSLYGIGFGPFIITNKHLFRRNNGTLVVQSLHGVFKVKDTTTLQQHLVDGRDMIIIRMPKDFPPFPQKLKFAEPQREERICLVTTNFQTKSMSSMVSDTSCTFPSGDGIFWKHWIQTKDGQCGSPLVSTRDGFIVGIHSASNFTNTNNYFTSVPKNFMELLTNQEAQQWVSGWRLNADSVLWGGHKVFMVKPEEPFQPVKEATQL [R102A] | 0.0547 | 0.058 | 0.0636 | 0.0595 | 0.0594 | 0.046 | 0.0532 |  | 0.0457 | 0.0457 | 0.0515 | 0.0558 | 0.0466 | 0.0509 | 0.0623 | 0.0533 | 0.0378 | 
